For assay [1], the system named is Salmonella enterica serovar Typhimurium SL1344. Description: bacterial growth OD600 after 18 h in MHB with 0.5 µg/mL polymyxin B; higher = more bacterial growth (less inhibition). The settings on record: 25 µM; polymyxin B 0.5 µg/mL; system: broth. How it is done: (§1)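 Secondary screen of the 553 primary hits at 25 µM. (i) S. Typhimurium SL1344 grown in Mueller-Hinton broth with 0.5 µg/mL polymyxin B, OD600 read after 18 h. (ii) SAFIRE assay: RAW 264.7 macrophages infected with S. Typhimurium sifB::gfp (MOI 30); compound added 2 h post-infection; cells fixed at 18 h; GFP-positive pixel fraction per macrophage imaged by confocal microscopy and expressed as % of DMSO control.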

Assay [2] shares this test system. Description: intramacrophage bacterial GFP load (SAFIRE), percent of DMSO control (% of DMSO); higher = more intracellular bacteria (less inhibition). The conditions noted are these: 25 µM; system: infected RAW 264.7 macrophages. How it is done:
as §1

Some of the results follow. Cut-off read from the data, not from the text of the source: active = 25% or less and inactive = the rest. Single values are uncertain, as repeats are few or missing.

The record followed here is the supplement of paper PMC12889115.
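Throughout, for bacterial growth OD600 after 18 h in MHB with 0.5 µg/mL polymyxin B: polymyxin B level opens the outer membrane while sparing the inner membrane, with novobiocin wells as reference growth inhibitor.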
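Throughout, for intramacrophage bacterial GFP load (SAFIRE), percent of DMSO control: compounds tested were the hits of an earlier 50 µM broth growth screen of a drug-like diversity library run with polymyxin B.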

For `Cc1cccc(N2CCN(C(=O)c3cn(Cc4ccccc4F)nn3)CC2)c1C`, the “bacterial growth OD600” value in assay [1] was -0.013. The “intramacrophage bacterial GFP load” value in assay [2] was inactive: 135.
On the same counts, the results for `O=C(c1cc(CCc2ccccc2)no1)N1CCCC(c2ccccc2)C1` (stereo unspecified) are -0.008 and inactive: 168.
In the case of `C=CC[C@@H]1CC=C[C@@H](C)N1C(=O)CC1(c2ccccc2)CC(=O)N(CCCOc2cccnc2)C1=O` (stereo partly specified), in assay [1], the “bacterial growth OD600” value is 0.004. In addition, in assay [2], the “intramacrophage bacterial GFP load” value was active: 15.9.
On the same counts, the results for `O=C(CC1(c2cccc(C(F)(F)F)c2)CC(=O)N(C2CC2)C1=O)N(CC1CCC1)CC1CCCO1` (stereo unspecified) are 0.006 and inactive: 80.2.
On the same counts, the results for `CCCc1cc(CN(C)C(=O)CC2(c3cccc(C(F)(F)F)c3)CC(=O)N(CC)C2=O)n[nH]1` (stereo unspecified) are 0.016 and active: 11.5.
For the molecule `O=C(c1ccc(=O)[nH]n1)N1CCc2onc(-c3cccc4ccccc34)c2C1`, the “bacterial growth OD600” value in assay [1] was 0.176. Moreover, the “intramacrophage bacterial GFP load” value in assay [2] is inactive: 131.
Turning to `CCOC(=O)C1(Cc2cccc(Cl)c2)CCCN(Cc2nccn2CC)C1` (stereo unspecified), the “bacterial growth OD600” value in assay [1] turned out to be 0.003.
On to `CC(C)CS(=O)(=O)c1ncc(CN(C)Cc2ccccc2)n1Cc1ccccc1`, for which the “bacterial growth OD600” value in assay [1] worked out at 0.008.
As for `O=C(NCc1n[nH]c2c1CCC2)c1coc(COc2ccc(F)cc2)n1`, the “bacterial growth OD600” value in assay [1] came out at 0.5. Further, the “intramacrophage bacterial GFP load” value in assay [2] is inactive: 175.
As to `COCCCN1C(=O)CC(CC(=O)NCc2cc(F)cc(C(F)(F)F)c2)(c2ccccc2C)C1=O` (stereo unspecified), the “bacterial growth OD600” value in assay [1] came to 0.001. Besides, the “intramacrophage bacterial GFP load” value in assay [2] is inactive: 122.
Regarding `CN(CCc1ccccn1)C(=O)c1csc2nc(-c3ccc(Cl)cc3)cn12`, in assay [1], the “bacterial growth OD600” value was determined as 0.454. The “intramacrophage bacterial GFP load” value in assay [2] is inactive: 102.
`Cc1ccc2c(c1)CN(Cc1ccncc1)CC(c1ccsc1)O2` (stereo unspecified): in assay [1], the “bacterial growth OD600” value was determined as 0.38. In addition, the “intramacrophage bacterial GFP load” value in assay [2] is inactive: 90.4.
For `O=C(CC1(c2ccccc2)CC(=O)N(Cc2ccncc2)C1=O)N(Cc1ccccc1)CC1CC1` (stereo unspecified), the “bacterial growth OD600” value in assay [1] was found to be 0.531. Also, the “intramacrophage bacterial GFP load” value in assay [2] is inactive: 95.2.
For the molecule `O=C(NC1CCOC1)c1cc(COc2ccc3c(c2)CCCC3)on1` (stereo unspecified), in assay [1], the “bacterial growth OD600” value was found to be 0.354. For the same molecule, the “intramacrophage bacterial GFP load” value in assay [2] was inactive: 197.
